# Variants at the floor of the assay are shown more often than the library holds them.
# B1: TPR 5TU (parent)
# chain: GGAUCUUCUCGAUCUAACAAAAAAGACAAAUCUGCCACAAAGCUUGAGAGCAUCUUCGGAUGCAGAGGCGGCAGCCUUCGGUGGCGCGAUAGCGCCAACGUUCUCAACUAUGACACGCAAAACGCGUGCUCCGUUGAAUGGAGUUUAUCAUG
# Variants of: B1
# Assay: polymerase ribozyme fitness, log enrichment relative to wild type (log ratio); higher = more active; in vitro selection for triplet polymerase activity
# Outline: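 Input and output libraries were sequenced on Illumina after a single in vitro selection round, run in triplicate on PCR-built, transcribed mutant libraries of each subunit of a heterodimeric triplet polymerase ribozyme. Selection annealed libraries to a biotinylated primer, the partner subunit and triplets, incubated them frozen at −7 °C, then gel-excised extended constructs for streptavidin-bead capture and RT-PCR. Genotypes with ≥10 input reads and ≥1 read per output were kept. Fitness is the logarithm, taken in base 2, of genotype enrichment divided by wild-type enrichment, using inverse-variance-weighted replicate averages.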
row,Variant,polymerase ribozyme fitness (log ratio)
1,GGAUCUUCUCGAUCUAACAAAAAAGACAAAUCUGCCACAAAGCUUGAGUGCAUCUUCGAAUGCAGAGGCGGCAGCCUUCGGUGGAGCGAUAGCGCCAACGUUCUCAACUAUGACACGCAAAACGCGUGCUCCGUUGAAUGGAGUUUAUCAUG [A49U G59A C85A],-3.41
2,GGAUCUUCUCGAUCUAACAAAAAAGACAAAUCUGCCACAAAGCUUGAGUGCAUCUUCGGAUGCAUAAGCGGCAGCCUUCGGUGGCGCGAUAGCGCCAACGUUCUCAACUAUGACACGCAAAACGCGUGCCCCGUGAAAUGGAGGUUAUCAUG [A49U G65U G67A U130C U135G G136A U144G],≤ -4.2
3,GGAUCUUCUCGAUCUAACAAAAAAGACAAAUCUGCCACAAAGCUUGAGUGCAUCUUCGGAUGCAGAGCCGGCAGCCUUCGGUGGCGCGAUAGCGCCAACGUUCUCAACUAUGACACGCAAAACGCGUGCUCCGUUGAAUGGAGUUUAUCAUG [A49U G68C],≤ -4.2
4,GGAUCUUCUCGAUCUAACAAAAAAGACAAAUCUGCCACAAAGCUUGAGUGCAUCUUCGGAUGCAGAGGCUGCAGCCUUCGGUGGCGCGAUAGCGCGAACGUUCUCAACUAUGACACGCAAAACGCGUGCUCCGUUGAAUGGAGUUUAUCAUG [A49U G70U C96G],≤ -4.2
5,GGAUCUUCUCGAUCUAACAAAAAAGACAAAUCUGCCACAAAGCUUGAGUGCAUCUUCGGAUGCAGAGGCGGCAGCCUUCGGUUGCGCGAUAGCGGCAACGUUCUCAACUAUGACACGCAGAACGCGUGCUCCGUUGAAUGAAGUUUACCAUG [A49U G83U C95G A120G G141A U148C],≤ -4.2
6,GGAUCUUCUCGAUCUAACAAAAAAGACAAAUCUGCCACAAAGCUUGAGUGCAUCUUCGGAUGCAGAGGCGGCAGCCUUCGGUGUCGCGAUAGCGCCGACGUUCUCAACUAUGAGACGCAAAACGCGUGCUCCGUUGAAUGGAGUUUAUCAUG [A49U G84U A97G C114G],≤ -4.2
7,GGAUCUUCUCGAUCUAACAAAAAAGACAAAUCUGCCACAAAGCUUGAGUGCAUCUUCGGAUGCAGAGGCGGCAGCCUUCGGUGGCGCGAUAGCGCCAACGUUCUCAACUAUGACACGCAAAACGCGUGCUCCUUUGAAUGGAGUUUAUCAUG [A49U G133U],-3.93
8,GGAUCUUCUCGAUCUAACAAAAAAGACAAAUCUGCCACAAAGCUUGAGUGCAUCUUCGGAUGCAGAGGCGGCAGCCUUCGGUGGCGCGAUAGCGCCAACGUUCUCAACUAUGACACGCAAAACGCGUGCUCCGUUGAAUGAAGUUUAUCAUG [A49U G141A],-1.34
9,GGAUCUUCUCGAUCUAACAAAAAAGACAAAUCUGCCACAAAGCUUGAGUGCAACUUCGGAUGCAGAGGCGGCAGCCUUCGGUGGAGCGAUAGCGCCAACGUUCUCAACUAUGACACGCAAAACGCGUGCUCCGUUAAAUAGAGUUUAUCAUG [A49U U53A C85A G136A G140A],≤ -4.2
10,GGAUCUUCUCGAUCUAACAAAAAAGACAAAUCUGCCACAAAGCUUGAGUGCAACAUCGGAUGCAGAGGCGGCAGCUUUCGGUGGCGCGAUUGGGCCAACGUUCUCAACUAUGACAGGCAAAUCGCGUGGUCCGUUGAAUGUAGUUUAUGAUG [A49U U53A U55A C76U A91U C93G C116G A122U C129G G141U C149G],≤ -4.2
11,GGAUCUUCUCGAUCUAACAAAAAAGACAAAUCUGCCACAAAGCUUGAGUGCAGCUUAGGAUGCAGAGGCGGCAGCCAUCGGUGGAGCGAUAGCGCCAACGUUCUCAAAUAUGACACGCAAAACGCGUGCUCCGUUGAAUGGAGUUUAUCAUG [A49U U53G C57A U77A C85A C108A],≤ -4.2
12,GGAUCUUCUCGAUCUAACAAAAAAGACAAAUCUGCCACAAAGCUUGAGUGCAUCAUCGGAUGCAGAGGCGGCAUCCUUCGGUGGCGCGAUACCGCCAACGUUCGCAACUAUGACACGCAAAACGCGUGCUCCGUUGAAUGGAGUUUAUCAUG [A49U U55A G74U G92C U104G],≤ -4.2
13,GGAUCUUCUCGAUCUAACAAAAAAGACAAAUCUGCCACAAAGCUUGAGUGCAUCAUCGGAUGCAGAGGCGGCAGCCUUCGGCGGCGCGAUAGCGCCAACGUUCUCAACUAUGACACGCAAAACGCGUGCUCCGUUGAGUGGAGUUUAUCAUG [A49U U55A U82C A138G],≤ -4.2
14,GGAUCUUCUCGAUCUAACAAAAAAGACAAAUCUGCCACAAAGCUUGAGUGCAUCUACGGAUGCAGAGGCGGCAGCCUUCGGUGGCGAGAUAGCGCCAACGUUCUCAACUAUGACACGCACAACGCGUGCUCCGUUGCAUGGAGUUUAUCAUG [A49U U56A C87A A120C A137C],≤ -4.2
15,GGAUCUUCUCGAUCUAACAAAAAAGACAAAUCUGCCACAAAGCUUGAGUGCAUCUUCGGAUGCAGAGGCGGCAGCCCUCGGUGGCGCGAUAGCGCCAACGUUCUCAACUAUGACACGCAAAACGCGUGCUCCGUUGAAUGGAGUUUAUCAUG [A49U U77C],≤ -4.2
16,GGAUCUUCUCGAUCUAACAAAAAAGACAAAUCUGCCACAAAGCUUGAGUGCAUCUUCGGAUGCAGAGGCGGCAGCCCUCGGUGGCGAGAUAGCGCCAACGUUCUCAACUAUGACACGCAAAACGAGUGCUCCGUUGAAUGCAGUUUAUCAUG [A49U U77C C87A C125A G141C],≤ -4.2
17,GGAUCUUCUCGAUCUAACAAAAAAGACAAAUCUGCCACAAAGCUUGAGUGCAUCUUCGGAUGCAGAGGCGGCAGCCCUCGGUGGCGCGAUAGAGCCAACGUUCUCAACUAUGACACGCAAAACCCGUGCUCCGUUGAAUGGAGUUUAUCAUG [A49U U77C C93A G124C],≤ -4.2
18,GGAUCUUCUCGAUCUAACAAAAAAGACAAAUCUGCCACAAAGCUUGAGUGCAUCUUCGGAUGCAGAGGCGGCAGCCUACGGUCGCGCGAUAGCGCCAACGUUCUCAACUAUGACACGCAAAACGCUUGCUCCGUUGAAUGGAGUUUAUCAUG [A49U U78A G83C G126U],≤ -4.2
19,GGAUCUUCUCGAUCUAACAAAAAAGACAAAUCUGCCACAAAGCUUGAGUGCAUCUUCGGAUGCAGAGGCGGCAGCCUUCGGUGGCGCGAGAGCGCCAACGUUCUCAACUAUGACACGCAAAACGCGUGCUCCCGUGAAUGGAGUUCAUCAUG [A49U U90G G133C U134G U146C],≤ -4.2

# — the RNAGym collection of RNA variant scans (doi:10.1073/pnas.2313332121)
